This is a noisy data set.
test: amyloid nucleation score relative to library mode (yeast Sup35 reporter selection) (log enrichment difference); higher = more amyloid nucleation; sequences are the first 22 residues of the Bri2 peptide extended by up to 12 random residues; conditions: random library (experiment): 1;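 active = nucleation score significantly above 0 at FDR 0.05; inactive = not significantly above 0 or absent from output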
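Note: [psi-pin-] Saccharomyces cerevisiae expressing SupN fusions, induced by 100 µM Cu2SO4, selected 7 d at 30 °C without adenine and uracil, scored by deep sequencing of output versus input.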

Row | Sequence | amyloid nucleation score
1 | EASNCFAIRHFENKFAVETLICRLNVGSDQALLV | inactive
2 | EASNCFAIRHFENKFAVETLICRLPYMWF | inactive
3 | EASNCFAIRHFENKFAVETLICRLQLMGTIGVTG | inactive
4 | EASNCFAIRHFENKFAVETLICRLQP | 1.49
5 | EASNCFAIRHFENKFAVETLICRLQYAVVYVGRV | inactive
6 | EASNCFAIRHFENKFAVETLICRLRGRTIEWESK | inactive
7 | EASNCFAIRHFENKFAVETLICRLRMLKRWRGRQ | 4.67
8 | EASNCFAIRHFENKFAVETLICRLRPVRRGVGS | inactive
9 | EASNCFAIRHFENKFAVETLICRLSSSVRRDSLR | inactive
10 | EASNCFAIRHFENKFAVETLICRLSVLMEWCKDR | inactive
11 | EASNCFAIRHFENKFAVETLICRLSVVYDRVDLA | 1.93
12 | EASNCFAIRHFENKFAVETLICRLTCFAQYGIKF | inactive
13 | EASNCFAIRHFENKFAVETLICRLTLVIISVIQV | inactive
14 | EASNCFAIRHFENKFAVETLICRLTPRPRQPRRS | inactive
15 | EASNCFAIRHFENKFAVETLICRLTRTSDFTCHL | inactive
16 | EASNCFAIRHFENKFAVETLICRLTSKYLKRC | inactive
17 | EASNCFAIRHFENKFAVETLICRLTSTSSSMCVA | inactive
18 | EASNCFAIRHFENKFAVETLICRLTWQFYGLVWG | inactive
19 | EASNCFAIRHFENKFAVETLICRLTYDTWPLIDG | inactive
20 | EASNCFAIRHFENKFAVETLICRLVFRRIKWPRR | 0.573
21 | EASNCFAIRHFENKFAVETLICRLVMLRMLVRGR | inactive
22 | EASNCFAIRHFENKFAVETLICRLVRKISGIIHM | inactive
23 | EASNCFAIRHFENKFAVETLICRLVSHR | inactive
24 | EASNCFAIRHFENKFAVETLICRLVSWWRMKLHR | inactive
25 | EASNCFAIRHFENKFAVETLICRLWCRGASEARG | 3.47

Row | Sequence | amyloid nucleation score
26 | EASNCFAIRHFENKFAVETLICRLWNCQSVEPSW | 3.99
27 | EASNCFAIRHFENKFAVETLICRLWRDPAEEPPR | inactive
28 | EASNCFAIRHFENKFAVETLICRM | inactive
29 | EASNCFAIRHFENKFAVETLICRMAG | inactive
30 | EASNCFAIRHFENKFAVETLICRMALKYAGINAL | -0.0572
31 | EASNCFAIRHFENKFAVETLICRMCMWSRDLM | 0.565
32 | EASNCFAIRHFENKFAVETLICRMERTGCWCCVD | 4.67
33 | EASNCFAIRHFENKFAVETLICRMGGSQANGGES | 5.8
34 | EASNCFAIRHFENKFAVETLICRMLRSVRTFAGH | inactive
35 | EASNCFAIRHFENKFAVETLICRMLWV | inactive
36 | EASNCFAIRHFENKFAVETLICRMMMAGQRPGPR | inactive
37 | EASNCFAIRHFENKFAVETLICRMNIYGVYVQVS | 6.34
38 | EASNCFAIRHFENKFAVETLICRMPYSFDGMQWA | 3.97
39 | EASNCFAIRHFENKFAVETLICRMRIHHVKAPAP | 1.39
40 | EASNCFAIRHFENKFAVETLICRMSGALRAVFGA | 0.00985
41 | EASNCFAIRHFENKFAVETLICRMSLCYVDFLEG | 4.89
42 | EASNCFAIRHFENKFAVETLICRMVGSLALIVPN | inactive
43 | EASNCFAIRHFENKFAVETLICRMVTYG | inactive
44 | EASNCFAIRHFENKFAVETLICRMWPSSDVDGET | 3.76
45 | EASNCFAIRHFENKFAVETLICRN | inactive
46 | EASNCFAIRHFENKFAVETLICRNAEQDRNSQAG | inactive
47 | EASNCFAIRHFENKFAVETLICRNAQDKSGAVSM | inactive
48 | EASNCFAIRHFENKFAVETLICRNARARACRMDC | inactive
49 | EASNCFAIRHFENKFAVETLICRNGDMMFVPFPG | inactive
50 | EASNCFAIRHFENKFAVETLICRNHFGKL | -0.28

same assay, conditions: random library (experiment): 2

Row | Sequence | amyloid nucleation score
51 | EASNCFAIRHFENKFAVETLICRLNKFRYGCLIS | inactive
52 | EASNCFAIRHFENKFAVETLICRLNMH | inactive
53 | EASNCFAIRHFENKFAVETLICRLNR | 2.19
54 | EASNCFAIRHFENKFAVETLICRLPNCFERFWPS | 4.16
55 | EASNCFAIRHFENKFAVETLICRLSMYFGLHIVD | 4.86
56 | EASNCFAIRHFENKFAVETLICRLSVFTDMRWSD | inactive
57 | EASNCFAIRHFENKFAVETLICRLSWIHRGYPFY | inactive
58 | EASNCFAIRHFENKFAVETLICRLTGSFARGLDP | inactive
59 | EASNCFAIRHFENKFAVETLICRLW | inactive
60 | EASNCFAIRHFENKFAVETLICRLWW | inactive
61 | EASNCFAIRHFENKFAVETLICRMAVPS | inactive
62 | EASNCFAIRHFENKFAVETLICRMCDNCRMGVAC | inactive
63 | EASNCFAIRHFENKFAVETLICRMFVVGGLVVLW | -0.0583
64 | EASNCFAIRHFENKFAVETLICRMFYLN | inactive
65 | EASNCFAIRHFENKFAVETLICRMKFEMFFYASK | inactive
66 | EASNCFAIRHFENKFAVETLICRMLIRPCGVSAR | inactive
67 | EASNCFAIRHFENKFAVETLICRMLVGRGGQLIS | inactive
68 | EASNCFAIRHFENKFAVETLICRMMCCMLGAFDK | 7.4
69 | EASNCFAIRHFENKFAVETLICRMMGW | inactive
70 | EASNCFAIRHFENKFAVETLICRMRKSIFVTFVS | inactive
71 | EASNCFAIRHFENKFAVETLICRMRLFLPVYGSR | inactive
72 | EASNCFAIRHFENKFAVETLICRMTGFL | inactive
73 | EASNCFAIRHFENKFAVETLICRMVKSRRILCYN | inactive
74 | EASNCFAIRHFENKFAVETLICRMWM | inactive
75 | EASNCFAIRHFENKFAVETLICRMYVAK | inactive
76 | EASNCFAIRHFENKFAVETLICRNALYIYAPVSS | inactive
77 | EASNCFAIRHFENKFAVETLICRNFRVTAAGTCL | inactive
78 | EASNCFAIRHFENKFAVETLICRNGGTCNSLYLL | inactive

same assay, conditions: random library (experiment): 3

Row | Sequence | amyloid nucleation score
79 | EASNCFAIRHFENKFAVETLICRLPSSVFDRSWR | 5.12
80 | EASNCFAIRHFENKFAVETLICRLQ | 7.22
81 | EASNCFAIRHFENKFAVETLICRLQC | inactive
82 | EASNCFAIRHFENKFAVETLICRLR | inactive
83 | EASNCFAIRHFENKFAVETLICRLRGCGLVGFS | inactive
84 | EASNCFAIRHFENKFAVETLICRLRLRSGAVRGA | inactive
85 | EASNCFAIRHFENKFAVETLICRLRLVRSTVVA | inactive
86 | EASNCFAIRHFENKFAVETLICRLRRANDWNHNE | inactive
87 | EASNCFAIRHFENKFAVETLICRLSDF | -0.0179
88 | EASNCFAIRHFENKFAVETLICRLSPRVGSSMYG | inactive
89 | EASNCFAIRHFENKFAVETLICRLSTSIYSSRSW | inactive
90 | EASNCFAIRHFENKFAVETLICRLTLSGQRRWSE | 3.01
91 | EASNCFAIRHFENKFAVETLICRLTVC | inactive
92 | EASNCFAIRHFENKFAVETLICRLVPRSMQGRLR | inactive
93 | EASNCFAIRHFENKFAVETLICRLVRCRIFVRCP | inactive
94 | EASNCFAIRHFENKFAVETLICRLVYIVDRRAHC | inactive
95 | EASNCFAIRHFENKFAVETLICRMACYRGFVAEN | inactive
96 | EASNCFAIRHFENKFAVETLICRMALRRRAGQGG | inactive
97 | EASNCFAIRHFENKFAVETLICRMAWFKDMDV | 4.13
98 | EASNCFAIRHFENKFAVETLICRMCYDINLSVVR | 1.15

Row | Sequence | amyloid nucleation score
99 | EASNCFAIRHFENKFAVETLICRMFFLTNSSCQM | inactive
100 | EASNCFAIRHFENKFAVETLICRMHWGRWKKCMW | inactive
101 | EASNCFAIRHFENKFAVETLICRMIPCARTVWRA | inactive
102 | EASNCFAIRHFENKFAVETLICRMKKVFTRVVRW | inactive
103 | EASNCFAIRHFENKFAVETLICRML | -0.0863
104 | EASNCFAIRHFENKFAVETLICRMLPLVVVVGRC | inactive
105 | EASNCFAIRHFENKFAVETLICRMMAIVDRLVWK | inactive
106 | EASNCFAIRHFENKFAVETLICRMMDVRWCARVR | inactive
107 | EASNCFAIRHFENKFAVETLICRMQGVARKVGYR | inactive
108 | EASNCFAIRHFENKFAVETLICRMRANIVLFGSC | inactive
109 | EASNCFAIRHFENKFAVETLICRMRSGTRMVRRG | inactive
110 | EASNCFAIRHFENKFAVETLICRMSDIMWCGSGA | 3.54
111 | EASNCFAIRHFENKFAVETLICRMSSGVNGTCEV | inactive
112 | EASNCFAIRHFENKFAVETLICRMSYLPEAAYAL | inactive
113 | EASNCFAIRHFENKFAVETLICRMTGHKNLLRID | inactive
114 | EASNCFAIRHFENKFAVETLICRNA | inactive
115 | EASNCFAIRHFENKFAVETLICRNARRSTCRYLG | inactive
116 | EASNCFAIRHFENKFAVETLICRNDLTTTFGAHL | 3.6
117 | EASNCFAIRHFENKFAVETLICRNDWTRTVLLSG | inactive
118 | EASNCFAIRHFENKFAVETLICRNGMASAAAVCP | inactive

Reference: the supplement of paper PMC12067230
